Measurements taken from PubChem BioAssay AID485344 (National Center for Advancing Translational Sciences (NCATS), 2010).
About 6,900 (2%) of roughly 340,000 compounds were called active. No stated cut-off is given here; in the data, active means inhibition above about 30%; inactive means below that, where a call was filed. This is a selection; strong and weak results do not stand in their true shares. Entries without a call were filed so in the source.

These compounds were tested against D(2) dopamine receptor (Homo sapiens) (UniProt P14416) (assay: HTS Assay for Allosteric Antagonists of the Human D2 Dopamine Receptor: Primary Screen for Antagonists). Conditions: HEK293 TREx D2 cells, calcium flux, dopamine EC80; at 10 µM; stronger effect = higher value.
UniProt P14416, sequence (P14416 whole entry, looked up): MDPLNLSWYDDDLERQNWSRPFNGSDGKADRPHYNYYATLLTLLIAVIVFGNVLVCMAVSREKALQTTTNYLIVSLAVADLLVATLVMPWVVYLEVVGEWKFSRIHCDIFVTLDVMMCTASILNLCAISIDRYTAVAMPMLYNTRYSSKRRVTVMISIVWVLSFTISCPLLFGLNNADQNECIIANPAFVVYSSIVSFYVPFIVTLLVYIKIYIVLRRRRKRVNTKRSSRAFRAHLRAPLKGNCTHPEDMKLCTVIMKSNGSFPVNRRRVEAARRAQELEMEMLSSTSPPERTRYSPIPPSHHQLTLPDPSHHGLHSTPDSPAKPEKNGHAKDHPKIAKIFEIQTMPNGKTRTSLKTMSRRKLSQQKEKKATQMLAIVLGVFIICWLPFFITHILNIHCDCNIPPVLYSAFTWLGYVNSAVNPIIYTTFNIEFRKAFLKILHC
Outline: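 Tetracycline-induced HEK293 T-REx cells expressing D2 force-coupled to calcium signalling were dye-loaded, exposed to compound for 180 s, then challenged with an EC80 of dopamine; calcium flux was followed kinetically for a further 180 s.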
Further: 0% is about no effect.

Structure (SMILES)	inhibition
Cc1cc2c(cc3c(SCc4ccccc4Cl)nnc(C)n32)o1	4.43%
CCN(C(=O)C1CCCN(c2ncnc3c2nc2n3CCCCC2)C1)c1cccc(Cl)c1 (stereo unspecified)	-5.28%
Cc1cc(NC(=O)c2ccc(NC(=O)CCS(=O)(=O)c3cccs3)cc2)ccc1Br	6.31%
Cc1c(CCNC(=O)C(C)(C)C)sc2nc(-c3ccc(F)cc3)nn12	-21.1%
CC(=O)c1ccc(NC(=O)COCc2cc(-c3ccc(F)cc3)on2)cc1	-2.85%
COc1ccccc1NC(=O)C1=C(C)Nc2nc(SCc3ccccc3)nn2C1c1ccncc1 (stereo unspecified)	11.3%
O=C(Nc1ccc(C(F)(F)F)cc1)C(Cc1ccccc1)n1cccc1 (stereo unspecified)	-8.66%
COc1ccc(C2=NS(=O)(=O)N(C)C(C(=O)Nc3ccc4c(c3)OCO4)=C2)cc1	active: 64.2%
CC(=O)Nc1cccc(C(=O)NCc2ccc3c(c2)CCN3C(=O)c2ccc(F)cc2)c1	-13.2%
CCn1nnc2cc(C(=O)Nc3ccc(Br)cc3F)ccc21	2.83%
Cn1ncc2c(NCc3ccc(F)cc3)ncnc21	-3.09%
CCOC(=O)c1c(S(=O)(=O)N2CCC(C(=O)N3CCN(c4ccc(F)cc4)CC3)CC2)c(C)n(C)c1C	8.12%
Nc1nc(Cl)nc2c1ncn2[C@@H]1O[C@H](CO)[C@@H](O)[C@H]1O	active: 37.4%
CCOc1ccccc1N1CCN(Cc2cnc(-c3ccccc3)[nH]2)CC1	active: 77.8%
O=c1[nH]c2ccccc2n1CCCN1CCN(C(c2ccccc2)c2ccccc2)CC1	active: 83.8%
O=C1N(Cc2ccccc2)c2ccccc2C1(O)c1c[nH]c2ccccc12 (stereo unspecified)	15.9%
Cc1ccc(NC(=O)C2CCCN2S(=O)(=O)c2ccc3c(c2)n(C)c(=O)c(=O)n3C)cc1C (stereo unspecified)	17.1%
Cn1c(=O)c2c(SCC(=O)N3CCc4ccccc43)nc(-c3ccc(Cl)cc3)nc2n(C)c1=O	-19.2%
COc1ccc(C2c3c(n(C)c4ccccc34)C(=O)N2CC(=O)Nc2ccc(F)cc2)cc1 (stereo unspecified)	3.42%
COCCNC(=O)C1=CC(c2ccc3c(c2)OCO3)=NS(=O)(=O)N1C	6.28%
CC(C)c1ccc(CNc2n[nH]c(-c3ccco3)n2)cc1	0.99%
CCC(=O)N1CCc2cc(OC)c(OC)cc2C1COc1ccc2c(C)cc(=O)oc2c1 (stereo unspecified)	-6.31%
Cn1cc(S(=O)(=O)N2CCOCC2)cc1C(=O)Nc1cccc(C#N)c1	1.46%
CC(C)Oc1ccc(CNC(=O)Cn2nc(N3CCN(c4ccccc4)CC3)ccc2=O)cc1	1.56%

Structure (SMILES)	inhibition
Cc1ccc(C(=O)c2oc3ccccc3c2NC(=O)Cc2ccccc2)cc1	-2.97%
CCCCn1c(=N)n(CCOc2ccccc2OC)c2ccccc21	3.82%
Cc1ccc(CSc2nc(-c3ccccc3C)nc3c2Cc2c(CO)cnc(C)c2O3)cc1	-2.61%
CCOc1ccc(-c2nc(SCC(=O)Nc3cc(F)ccc3F)n3[nH]c(=O)cc3n2)cc1	0.617%
COc1ccc(-c2ccc(=O)n(CC(=O)Nc3ccc(OC)c(OC)c3)n2)cc1	14.9%
O=C(Nc1ccc(N2CCOCC2)c(Cl)c1)c1ccc(S(=O)(=O)N2CCOCC2)cc1	active: 34.4%
COc1cc(OC)c(OC)cc1CNCCCSc1nnnn1C	-4.98%
CCc1ccc(OCc2cc(=O)n3cc(C)sc3n2)cc1	8.29%
CCOc1ccc2oc(=O)cc(CN3CCN(c4ccccc4OC)CC3)c2c1	-8.38%
COc1ccc(C(=O)N(Cc2cc(OC)c(OC)c(OC)c2)C2CCS(=O)(=O)C2)cc1Cl (stereo unspecified)	17.4%
O=C(CN1C(=O)COc2ccc(S(=O)(=O)N3CCOCC3)cc21)N1CCN(c2ccccc2F)CC1	6.86%
CCc1cccc(NC(=O)c2c(C)oc3nc(C)nc(N4CCCC4)c23)c1	9.3%
Cc1ccc(NC(=O)C(=O)NCC2(c3ccccc3)CCCC2)cc1C	8.38%
Cc1cc([N+](=O)[O-])ccc1NC(=O)/C=C/c1cccs1	active: 43.8%
CCCOc1ccc(CNC(=O)CN2C(=O)c3cccnc3Oc3ccc(C)cc32)cc1	-2.76%
COC(=O)C1CCN(c2csc3ccc(Cl)cc3c2=O)CC1	1.43%
O=C(NCCCO)c1nn(-c2ccc(Cl)cc2)nc1CO	-7.24%
COc1cc(-c2nc3ccc(Cl)cn3c2Nc2ccc3c(c2)OCCO3)ccc1O	8.99%
Cc1cccc(CSc2nnc3[nH]c(=O)cc(-c4ccccc4)n23)c1	-10.6%
O=C(c1ccc2c(c1)N(Cc1ccc(Cl)cc1)C(=O)c1ccccc1S2(=O)=O)N1CCN(c2ccccn2)CC1	10.5%
O=C(Nc1cc(Cl)cc(Cl)c1)c1ccc(F)c(S(=O)(=O)N2CCN(c3ccccc3F)CC2)c1	-10.8%
Cc1cc(NC(=O)C2CCCN(S(=O)(=O)c3cccc4nsnc34)C2)ccc1Br (stereo unspecified)	-2.82%
CCOc1ccc(NC(=O)N2CCC(N3CCCCC3)CC2)cc1	-9.49%
Cc1ccc(CN2COc3c(Cl)cc4c(-c5ccccc5)cc(=O)oc4c3C2)cc1	-6.74%

Structure (SMILES)	inhibition
Cc1ccc(NC(=O)COc2ccc3oc4c(c3c2)CCCC4)cc1C	8.65%
CCOc1ccccc1NC(=O)c1c(NC(=O)Cc2ccc(OC)cc2)sc2c1CCC2	-12.1%
CCc1cccc(NC(=O)c2ccc3c(c2)c(C)c(C)n3Cc2ccc(F)cc2)c1	-2.7%
Cc1ccc(OCC(=O)Nc2cccc(C(=O)OCc3cc(=O)n4c(C)csc4n3)c2)cc1	16.3%
Cn1c(C(=O)Nc2ccc(OC(F)(F)F)cc2)cc2c(=O)n3ccccc3nc21	10.6%
COc1ccccc1CNC(=O)c1nnn(CC(=O)Nc2c(C)cccc2C)c1N	-3.47%
Cc1ccccc1OCC(=O)OCc1cc(=O)n2nc(-c3cccs3)sc2n1	-7.48%
COc1ccccc1N1CCN(CC(=O)N2N=CCC2c2ccccc2)CC1 (stereo unspecified)	active: 41.7%
Cc1ccc(CNC(=O)CN2N=C(c3ccccc3)CCC2=O)cc1	11.7%
Cc1ccc(N(CC(=O)Nc2ccc(C)c(Cl)c2)S(=O)(=O)c2cccs2)cc1	0.731%
CC1=C(C(=O)OC2CCCC2)C(c2ccccc2C(F)(F)F)CC(=O)N1 (stereo unspecified)	-0.62%
O=S(=O)(c1ccc(-c2cnc(C3CC3)o2)cc1)N1CCN(c2ccccc2)CC1	19.6%
CCOc1ccccc1NC(=O)Cn1c(=O)n(C(C)C)c(=O)c2oc3ccccc3c21	-5.43%
Cc1cccc(CSc2ncccc2C(=O)O)c1	-14.8%
COc1ccc(-n2c(=O)c3ccc(C(=O)NCc4ccc(C)cc4)cc3n(Cc3ccc(Cl)cc3)c2=O)cc1	1.14%
COc1ccc(-n2nc3c(N4CCCC(C(=O)NCCc5ccccc5C)C4)nnc(C)c3c2C)cc1 (stereo unspecified)	-19.9%
COCCn1c(C)cc(O)c(C(c2ccc(F)cc2)N2CCC(C)CC2)c1=O (stereo unspecified)	-1.9%
COc1ccc(CCNC(=O)c2ccc(Cn3c(=O)c4ccccc4n(Cc4cccc(F)c4)c3=O)cc2)cc1OC	7.22%
CCc1ccc(NC(=O)C2CCCN2S(=O)(=O)c2ccc3c(c2)CCCC(=O)N3)cc1 (stereo unspecified)	-6.03%
CCn1nc(CC(=O)Nc2ccc(-n3cnnn3)c(OC)c2)c2ccccc2c1=O	active: 34.6%
COc1ccc(C(C)=O)cc1CC(=O)Nc1cccc(S(=O)(=O)N2CCOCC2)c1	active: 32.8%
Cc1cc2c(cc1NS(=O)(=O)c1cccc(C#N)c1)n(C)c(=O)c(=O)n2C	10%
CCc1cccc(C)c1NC(=O)Cn1nnc(-c2nc(-c3ccccc3F)no2)c1N	-6.35%
Cn1cc(S(=O)(=O)N2CCCCCC2)cc1C(=O)Nc1ccc(Cl)c(C(F)(F)F)c1	-0.747%

Structure (SMILES)	inhibition
CC1=Nc2cc(C(=O)N3CCC(C)CC3)ccc2Sc2ccc(Cl)cc21	13.2%
CCOc1ccc(OCCOCCN2CCc3ccccc3C2)cc1	active: 68.4%
CCCOc1ccc(C2C(=O)N(C3CCC(C)CC3)CC(=O)N2Cc2cccc(OC)c2)cc1OC (stereo unspecified)	9.61%
C[C@@H]1C2CC(C/C2=N\NC(=O)c2ccncc2)C1(C)C (stereo partly specified)	active: 35.6%
CCOC(=O)C1CCCN(CC(=O)Nc2cc(C)c3c(=O)oc4ccccc4c3n2)C1 (stereo unspecified)	-6.41%
Cc1cc(C)cc(NC(=O)C2CCN(S(=O)(=O)c3cn(C)cn3)CC2)c1	16.1%
CC(C(=O)Nc1cc(Cl)cc(Cl)c1)N1CCCC1 (stereo unspecified)	active: 89.1%
O=c1oc2ccc3ccccc3c2cc1-c1nnc(Nc2ccccc2F)s1	13.4%
COc1ccc(-c2n[nH]c3c2cnc2ccc(F)cc23)cc1	-15.3%
CCCSc1nc(-c2ccccc2)[nH]c1S(=O)(=O)c1ccc(C)cc1	-13.4%
COc1ccc(-c2cc3ccc(O)c(CN4CCCC4)c3oc2=O)cc1	-7.02%
Cc1ccc(-c2c(C(=O)NCCc3ccccc3)oc(=O)c3ccccc23)cc1	-5.8%
CN(C)/C=N/c1ncc(C(=O)c2ccc(Cl)cc2)s1	active: 56.6%
COc1ccc2c(c1)c1c(c(=O)n(Cc3ccccc3)c(=O)n1Cc1cccc(Cl)c1)n2C	6.03%
Cc1cc(C)c2oc(-c3ccc(Cl)c(NC(=O)c4cccs4)c3)nc2c1	-9.75%
CC(=O)N1CCc2cc(S(=O)(=O)NC(Cc3ccccc3)C(=O)Nc3cc(C)ccc3C)ccc21 (stereo unspecified)	-8.53%
CCOc1ccc(CNC(=O)c2nn(-c3ccc(OC)cc3)c(=O)c3c2c2ccccc2n3C)cc1	-0.727%
NC(=O)CSc1ncc2c(n1)-c1ccccc1N(Cc1ccc(F)cc1)S2(=O)=O	-15%
CC1=C(c2ccc(C)cc2)S(=O)(=O)N(Cc2ccc(C(=O)Nc3ccc(C)c(F)c3)cc2)C1=O	3.59%
CCOc1ccc(C(=O)Nc2ccc3nc(SCC(=O)N4CCc5ccccc54)sc3c2)cc1	9.47%
Cc1ccc(-c2ccc(CCC(=O)O)n2-c2ccc(C(N)=O)cc2)cc1	-4.42%
CCOc1ccc2nc(NC(=O)Nc3ccccc3)sc2c1	active: 31.6%
Cc1oc(-c2cccs2)nc1CN1CCC(CO)(CCOc2ccccc2)CC1	active: 54.1%
O=C(NCc1ccccc1)c1cccn1-c1nnc(N2CCCC2)s1	-8.72%
